From the supplement of paper PMC7125110
± gives the standard error. Variants at the floor of the assay are shown more often than the library holds them.

B1: glmS ribozyme (parent)
chain: AUAAAAGCGCCAGAACUACAGAAAUGUAGUUGACGAGGAGGAGGUUUAUCGAAUUUUCGGCGGAUGCCUCCAAA

How the values were obtained:
Settings in all cases: with glucosamine-6-phosphate
glucosamine-6-phosphate [1] = variants of: B1; assay: self-cleavage kobs at 160 uM GlcN6P; higher = faster cleavage; RNA array
Outline: (§1)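 On sequenced MiSeq chips, barcoded ribozyme variants were made in situ by E. coli RNA polymerase and followed at 37 °C through a hybridised Cy3 probe. Glucosamine-6-phosphate was flowed in at 40 μM to 10 mM in HEPES/KCl/Mg(OAc)2 buffer. Exponential fits to normalised per-tile medians gave kobs, and weighted Michaelis–Menten fits gave kcat and KM.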

glucosamine-6-phosphate [2] = variants of: B1; assay: self-cleavage kobs at 2500 uM GlcN6P; higher = faster cleavage; RNA array
Outline: as §1

glucosamine-6-phosphate [3] = variants of: B1; assay: self-cleavage kobs at 10000 uM GlcN6P; higher = faster cleavage; RNA array
Outline: as §1

Variant | self-cleavage kobs at 160 uM GlcN6P (glucosamine-6-phosphate [1]) [s⁻¹] | self-cleavage kobs at 2500 uM GlcN6P (glucosamine-6-phosphate [2]) [s⁻¹] | self-cleavage kobs at 10000 uM GlcN6P (glucosamine-6-phosphate [3]) [s⁻¹]
G7A C8U A64U C70G | < 1e-05 | < 1e-05 | 
G7A G9A A14G U55G | < 1e-05 |  | 
G7A G29A A48U G60C G63A | < 1e-05 | < 1e-05 | 
G7A U54G | < 1e-05 |  | 4.41e-05 ± 1.5e-05
G7C A12C C16A A48U | < 1e-05 | < 1e-05 | 
G7C A33C A36G | < 1e-05 | < 1e-05 | 
G7C C11U A14G A39U C50U A53G C68A C70A | < 1e-05 |  | 
G7C G29A U30A C71U | < 1e-05 | < 1e-05 | 
G7C U49A C70A | < 1e-05 | < 1e-05 | 
G7C U56C G63C C71U | < 1e-05 |  | 
G7U A12C G41A | < 1e-05 | < 1e-05 | 
G7U A12G U45C U46G C71U | < 1e-05 | < 1e-05 | 
G7U G63U | < 1e-05 | < 1e-05 | < 1e-05
G7U U31C | < 1e-05 | < 1e-05 | < 1e-05
C8A A36C A42C G66C C67A | < 1e-05 | < 1e-05 | 
C8A G32C U54C | < 1e-05 |  | 
C8A U55C C61G | < 1e-05 | < 1e-05 | 
C8G C16A C50U G66A | < 1e-05 |  | < 1e-05
C8G C50A | < 1e-05 | < 1e-05 | < 1e-05
C8G U31C G43U | < 1e-05 |  | < 1e-05
C8G U46A | < 1e-05 | < 1e-05 | < 1e-05
C8U A33G G62A G63U | < 1e-05 |  | 
C8U A36U G40C U56A | < 1e-05 | < 1e-05 | 

Variant | self-cleavage kobs at 160 uM GlcN6P (glucosamine-6-phosphate [1]) [s⁻¹] | self-cleavage kobs at 2500 uM GlcN6P (glucosamine-6-phosphate [2]) [s⁻¹] | self-cleavage kobs at 10000 uM GlcN6P (glucosamine-6-phosphate [3]) [s⁻¹]
C8U C50G G63U | 0.000108 ± 2.8e-05 | 5.35e-05 ± 2.6e-05 | 
C8U G35U G44A | < 1e-05 |  | 
C8U G35U G62C C71U | < 1e-05 |  | 
G9A A33C U49C C68U | < 1e-05 |  | 
G9A A48G G51A G63A | < 1e-05 | < 1e-05 | 
G9A C34U G37U A52U G60U | < 1e-05 | < 1e-05 | 
G9C A33C | < 1e-05 | < 1e-05 | < 1e-05
G9C U30G U45A | < 1e-05 |  | 
G9U A33C C67G | < 1e-05 | < 1e-05 | 
G9U C16U G32A A64U | < 1e-05 |  | 
G9U C34U G66U | < 1e-05 |  | 
G9U G40A G66A C71A | < 1e-05 |  | 
G9U U55A | < 1e-05 | < 1e-05 | < 1e-05
C10A A14G G62A | < 1e-05 | < 1e-05 | 
C10A G13A A53C U69C | < 1e-05 |  | 
C10A G13A G32U | < 1e-05 |  | 
C10A G13U A52G U56C G66C | < 1e-05 | < 1e-05 | 
C10A G35A | < 1e-05 | < 1e-05 | < 1e-05
C10G A14G G37C C70U | < 1e-05 |  | 
C10G A14U A42U G60C C67G | < 1e-05 |  | 
C10G A39G G66A | < 1e-05 | < 1e-05 | 
C10G C11A C16A G59A | < 1e-05 | < 1e-05 | 
C10G G32U U54G C68A | 5.61e-05 ± 2.2e-05 |  | 

Variant | self-cleavage kobs at 160 uM GlcN6P (glucosamine-6-phosphate [1]) [s⁻¹] | self-cleavage kobs at 2500 uM GlcN6P (glucosamine-6-phosphate [2]) [s⁻¹] | self-cleavage kobs at 10000 uM GlcN6P (glucosamine-6-phosphate [3]) [s⁻¹]
C10G U55C G63U C67U U69A | < 1e-05 |  | 
C10U A42G A53U | < 1e-05 |  | 
C10U G62A U65G | < 1e-05 | < 1e-05 | 
C11A A42U C58U C68G | < 1e-05 | < 1e-05 | 
C11A C34U G60U C71A | < 1e-05 | < 1e-05 | 
C11A G63U | < 1e-05 | < 1e-05 | < 1e-05
C11G A33U | < 1e-05 | < 1e-05 | 
C11G U31C G44A | < 1e-05 | < 1e-05 | 
A12C C16U U57A | < 1e-05 |  | 
A12C G43U G60C C70U | < 1e-05 | < 1e-05 | < 1e-05
A12G A15G G29A G32C G37U | < 1e-05 |  | 
A12G A48C U57A C58A | < 1e-05 | < 1e-05 | 
A12G G13A U45C U49C C50A A52C A53U G66U | < 1e-05 | < 1e-05 | 
A12G U31C G32C C50U G63A | < 1e-05 |  | 
A12G U49C C67G | < 1e-05 |  | 
A12U G32C C34U | < 1e-05 | < 1e-05 | 
A12U U30C G51U | < 1e-05 |  | 
A12U U46C C67A | 0.00011 ± 2.6e-05 | 0.00113 ± 0.0002 | 
G13A G43C G66A | < 1e-05 | < 1e-05 | < 1e-05
G13C C16U G38U | < 1e-05 |  | 
G13C C50G | 0.00119 ± 0.00034 |  | 
G13C G51U C61G | < 1e-05 |  | 
G13C U47A G62A | < 1e-05 | < 1e-05 | 

Variant | self-cleavage kobs at 160 uM GlcN6P (glucosamine-6-phosphate [1]) [s⁻¹] | self-cleavage kobs at 2500 uM GlcN6P (glucosamine-6-phosphate [2]) [s⁻¹] | self-cleavage kobs at 10000 uM GlcN6P (glucosamine-6-phosphate [3]) [s⁻¹]
G13U A36U G43A G51A C67G C70U | < 1e-05 | < 1e-05 | 
G13U A48U | < 1e-05 |  | 
G13U G29A G66C | < 1e-05 |  | 
G13U G41A C71U | < 1e-05 |  | 
A14C A42U | < 1e-05 |  | 
A14G A42C | < 1e-05 |  | 
A14G G32A G38U | < 1e-05 | < 1e-05 | < 1e-05
A15C A36G G38U | < 1e-05 | < 1e-05 | 
A15C U45C U57G C58U C61G | < 1e-05 |  | 
A15G A36C | < 1e-05 |  | 
A15G A39G G51U U54G | < 1e-05 | < 1e-05 | 
A15G A39G U55A C58U | < 1e-05 |  | 
A15U A33C G40U | < 1e-05 |  | 
A15U C16A A36C A53C | < 1e-05 |  | 
A15U G51A G60A | < 1e-05 |  | 
A15U U30G G59C U65A | < 1e-05 | < 1e-05 | 
C16A C34U C71U | < 1e-05 |  | 
C16A G29C C58U | < 1e-05 |  | 
C16A U46G A48G C50U C67A | < 1e-05 |  | 
C16A U49C A64C | < 1e-05 |  | 
C16G G60U | < 1e-05 | < 1e-05 | < 1e-05
C16G U57A | < 1e-05 |  | 
C16U C34G C50U | < 1e-05 |  | 

Variant | self-cleavage kobs at 160 uM GlcN6P (glucosamine-6-phosphate [1]) [s⁻¹] | self-cleavage kobs at 2500 uM GlcN6P (glucosamine-6-phosphate [2]) [s⁻¹] | self-cleavage kobs at 10000 uM GlcN6P (glucosamine-6-phosphate [3]) [s⁻¹]
C16U G32C A52G | < 1e-05 |  | 
C16U G62U | < 1e-05 | < 1e-05 | < 1e-05
C16U U31G G35C A42U G43C G63U | < 1e-05 |  | 
G26A C70A | 0.000106 ± 2.6e-05 |  | 
G26U G44C U55A A64U C67G | < 1e-05 |  | 
G29A G41U U54G U65G | < 1e-05 |  | 
G29A U31A U45G | < 1e-05 |  | 
G29C A39U G59A | < 1e-05 |  | 
G29U A48U A53U | < 1e-05 |  | 
G29U G32U A42G C71A | < 1e-05 |  | 
G29U U30G A39U | 8.86e-05 ± 2.1e-05 | 0.0013 ± 0.00029 | 
U30A A48C C67G | < 1e-05 |  | 
U30A U31C G60A C71A | < 1e-05 |  | 
U30A U47C C70G | < 1e-05 |  | 
U30C C34A G37A | < 1e-05 |  | 
U30C G43C C68G | 7.51e-05 ± 2.2e-05 |  | 
U30C U46G U54A | < 1e-05 |  | 
U30G G32C U57A | < 1e-05 |  | 
U31A A33C | < 1e-05 |  | 
U31A A52C | < 1e-05 | < 1e-05 | 
U31A G38C | < 1e-05 |  | 
U31A G60U C70G | < 1e-05 |  | 
U31C A64U U65A | < 1e-05 |  | 

Variant | self-cleavage kobs at 160 uM GlcN6P (glucosamine-6-phosphate [1]) [s⁻¹] | self-cleavage kobs at 2500 uM GlcN6P (glucosamine-6-phosphate [2]) [s⁻¹] | self-cleavage kobs at 10000 uM GlcN6P (glucosamine-6-phosphate [3]) [s⁻¹]
U31C G38C A42G C71G | < 1e-05 | < 1e-05 | 
U31G G32C G38A | < 1e-05 | < 1e-05 | 
U31G G37A A39U U46G G51A | < 1e-05 |  | 
U31G U47G A48G | < 1e-05 |  | 
G32A A33C C34G G60C | < 1e-05 | < 1e-05 | 
G32A A52C G63A A64C | < 1e-05 | < 1e-05 | 
G32C A39U | < 1e-05 |  | 
G32C U54A | < 1e-05 |  | 
G32U A33U G43U | < 1e-05 | < 1e-05 | 
G32U G38U U54G | < 1e-05 |  | 
G32U G41C A48U | < 1e-05 |  | 
A33U | < 1e-05 |  | 
A33U G51U C58U | < 1e-05 |  | 
A33U G62U | < 1e-05 | < 1e-05 | < 1e-05
A33U G63U A64U | < 1e-05 |  | 
C34A A39U C58A G63U | < 1e-05 |  | 
C34G G38A | < 1e-05 |  | < 1e-05
C34G U46A | < 1e-05 | < 1e-05 | < 1e-05
C34U A39C | < 1e-05 |  | < 1e-05
